In the supplement of paper PMC7826260:
The other results are listed elsewhere or left out. One pool of 16,384 single-stranded DNAs met each Rep nickase domain in vitro for 1 h at 37 °C with 3 µM enzyme; only the middle of the 90-letter strands is printed. Values are log2 of uncut reads against the no-enzyme pool; the lower, the more was cut; hits are not called. Because reads are shares of a total, they shift together; uncut strands gain when others are lost, and binding without cutting may add a little.

tested on: T1, Rep nickase domain of tomato golden mosaic virus; test: uncleaved DNA left, log2 of reads against the no-enzyme library (log2 ratio); higher = less cleavage (more negative = more Rep cleavage of the k-mer); sequences stand for … in CTCGTCCG…ACCGGAGA
T1 sequence (residues 1-124, tag not shown): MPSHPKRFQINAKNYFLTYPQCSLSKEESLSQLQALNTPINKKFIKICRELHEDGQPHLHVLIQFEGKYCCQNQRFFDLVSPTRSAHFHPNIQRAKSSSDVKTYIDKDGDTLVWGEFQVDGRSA
Description: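 A pool of 90-nt single-stranded DNAs with seven random bases just before the constant AC of the nick site (name = the seven bases) was cut by 3 µM recombinant His6-SUMO-tagged Rep nickase domain (300 nM DNA, 50 mM HEPES pH 8.0, 50 mM NaCl, 1 mM MnCl2, 1 h, 37 °C, three replicates). Uncut DNA was amplified and sequenced.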

Sequence | uncleaved DNA left (log2)
GGAATAC | 0.0382
GTAGAGT | 0.00787
GTGGAAG | 0.135
CGAAAAA | -0.00669
GTGTGTA | 0.166
CCCGCGG | 0.133
ATCCAGG | -0.0212
GTGCTAT | 0.095
TCGCCCG | -0.069
CTGATGG | -0.119
GCCAAAA | 0.261
GGTTAGG | 0.184
TTGCAAG | -0.211
TACAGCA | -0.0368
AAGTCAG | 0.146
CTTGCAT | -0.0295
CCGTTGT | -0.0322
AGTTACC | -0.118
CGAGTGC | -0.172
AAAGAGA | 0.15

Sequence | uncleaved DNA left (log2)
GCGTGCC | 0.0147
GCGGCAT | -0.0781
ATCACAA | -0.00443
GCATGTA | 0.104
CACTCGG | 0.223
TTTCGTG | -0.0826
GATAGAC | 0.033
CACAGAG | -0.0901
CTTCGTG | -0.0456
GCAACCG | -0.032
TATATCA | 0.0268
AGGCTCC | -0.054
CTTTCGG | 0.0138
TTAGCAT | -0.0679
ATAGCTC | -0.049
GGGCTTG | 0.0823
GACGCAA | -0.0191
GTTATGC | -0.0319
CGTTGGG | -0.123
TTTCTGG | 0.033
